According to patent publication US9126931B2 (priority 2009, dated 2015):
Structures can show the parent of a compound that is named as a salt.

System: Human lymphoma cell line KARPAS-299
Experiment: cells
Conditions: KARPAS-299, 96 h, read-out: Inhibitory activity on Karpas-299 cell growth IC50

Compound	IC50
CCN(CC)CCOc1ccc2c(n1)C(C)(C)c1oc3cc(C#N)ccc3c1C2=O [EZ9-5, 2-(2-Diethylamino-ethoxy)-11,11-dimethyl-5-oxo-5,11-dihydro-benzo[4,5]furo[3,2-g]quinoline-8-carbonitrile]	13400 nM
CCN(CC)CCOc1ccc2c(c1)C(C)(C)c1[nH]c3cc(NC(=O)Oc4cccc(C(F)(F)F)c4)ccc3c1C2=O [GT5-12, [8-(2-Diethylamino-ethoxy)-6,6-dimethyl-11-oxo-6,11-dihydro-5H-benzo[b]carbazol-3-yl]-carbamic acid 3-trifluoromethyl-phenyl ester]	20000 nM
CC(C)Oc1cc2c(cc1Oc1ccncc1)C(C)(C)c1[nH]c3cc(C#N)ccc3c1C2=O [Compound L10-10, 9-Isopropoxy-6,6-dimethyl-11-oxo-8-(pyridin-4-yloxy)-6,11-dihydro-5H-benzo[b]carbazole-3-carbonitrile]	159 nM
COCCOCCN1CCN(c2cc3c(cc2Br)C(=O)c2c([nH]c4cc(C#N)ccc24)C3(C)C)CC1 [Compound F4-4, 9-Bromo-8-{4-[2-(2-methoxy-ethoxy)-ethyl]-piperazin-1-yl}-6,6-dimethyl-11-oxo-6,11-dihydro-5H-benzo[b]carbazole-3-carbonitrile]	7.1 nM
CC1(C)c2cc(N3CCC(N4CCCC4)CC3)ccc2C(=O)c2c1[nH]c1ncccc21 [Compound G6, 10,10-Dimethyl-8-(4-pyrrolidin-1-yl-piperidin-1-yl)-10,11-dihydro-1,11-diaza-benzo[b]fluoren-5-one]	168 nM
CC1(C)c2cc(CN3CCOCC3)ccc2C(=O)c2c1[nH]c1cc(C#N)ccc21 [Compound B3-32, 6,6-Dimethyl-8-morpholin-4-yl methyl-11-oxo-6,11-dihydro-5H-benzo[b]carbazole-3-carbonitrile]	65.2 nM
CC(C)N1CCC(c2ccc3c(c2)C(C)(C)c2[nH]c4cc(C#N)ccc4c2C3=O)CC1 [Compound B4-7, 8-(1-Isopropyl-piperidin-4-yl)-6,6-dimethyl-11-oxo-6,11-dihydro-5H-benzo[b]carbazole-3-carbonitrile]	10.5 nM
CC1(C)c2cc(OC3CCOC34CCN(S(C)(=O)=O)CC4)ccc2C(=O)c2c1[nH]c1cc(Br)ccc21 (stereo not shown) [Compound T16-3, 3-Bromo-8-(8-methanesulfonyl-1-oxa-8-aza-spiro[4.5]decan-4-yloxy)-6,6-dimethyl-5,6-dihydro-benzo[b]carbazol-11-one]	2250 nM
CCc1cc2c(cc1N1CCC(OCC3CC3)CC1)C(C)(C)c1[nH]c3cc(C#N)ccc3c1C2=O [PR9-24, 8-(4-Cyclopropylmethoxy-piperidine-1-yl)-9-ethyl-6,6-dimethyl-11-oxo-6,11-dihydro-5H-benzo[b]carbazole-3-carbonitrile]	67.9 nM
COCCOCCOc1ccc2c(c1)C(C)(C)c1[nH]c3cc(C#N)ccc3c1C2=O [Compound A7-9, 8-[2-(2-Methoxyethoxy)ethoxy]-6,6-dimethyl-11-oxo-6,11-dihydro-5H-benzo[b]carbazole-3-carbonitrile]	204 nM
CC1(C)c2cc(OCCN3CCC(C(N)=O)CC3)ccc2C(=O)c2c1[nH]c1cc(C#N)ccc21 [Compound A8-16, 1-[2-(3-Cyano-6,6-dimethyl-11-oxo-6,11-dihydro-5H-benzo[b]carbazol-8-yloxy)-ethyl]-piperidine-4-carboxylic acid amide]	34.5 nM
CCc1cc2c(cc1N1CCN(C3CCC3)CC1)C(C)(C)c1[nH]c3nc(C#N)ccc3c1C2=O [DZ7-1, 8-(4-Cyclobutyl-piperazine-1-yl)-7-ethyl-10,10-dimethyl-5-oxo-10,11-dihydro-5H-1,11-diaza-benzo[b]fluorene-2-carbonitrile]	357 nM
Cn1cc(-c2cc3c(cc2N2CCOCC2)C(C)(C)c2[nH]c4cc(C#N)ccc4c2C3=O)cn1 [Compound F5-11, 6,6-Dimethyl-9-(1-methyl-1H-pyrazol-4-yl)-8-morpholin-4-yl-11-oxo-6,11-dihydro-5H-benzo[b]carbazole-3-carbonitrile]	6.1 nM
COc1ccc2c(c1)C(C)(C)c1[nH]c3c(O)c(C#N)ccc3c1C2=O [Compound U9, 4-Hydroxy-8-methoxy-6,6-dimethyl-11-oxo-6,11-dihydro-5H-benzo[b]carbazole-3-carbonitrile]	407 nM
CC(C)Oc1cc2c(cc1OCC1CCN(C3CCC3)CC1)C(C)(C)c1[nH]c3cc(C#N)ccc3c1C2=O [Compound L10-5, 8-(1-Cyclobutyl-piperidin-4-ylmethoxy)-9-isopropoxy-6,6-dimethyl-11-oxo-6,11-dihydro-5H-benzo[b]carbazole-3-carbonitrile]	19 nM
CC1(C)c2cc(N3CCN(C4CCSCC4)CC3)c(Br)cc2C(=O)c2c1[nH]c1cc(C#N)ccc21 [Compound F4-6, 9-Bromo-6,6-dimethyl-11-oxo-8-[4-(tetrahydro-thiopyran-4-yl)-piperazin-1-yl]-6,11-dihydro-5H-benzo[b]carbazole-3-carbonitrile]	29.1 nM
COCCOc1ccc2c3c(oc2c1)C(C)(C)c1cc(OC[C@@H](O)[C@H](O)CO)ccc1C3=O [GT13-16, 3-(2-Methoxy-ethoxy)-6,6-dimethyl-8-((2R,3R)-2,3,4-trihydroxy-butoxy)-6H-benzo[b]naphtho[2,3-d]furan-11-one]	7880 nM

Compound	IC50
CCN(CC)CCOc1ccc2c(n1)C(C)(C)c1[nH]c3cc(C#N)ccc3c1C2=O [EZ9-3, 2-(2-Diethylamino-ethoxy)-11,11-dimethyl-5-oxo-10,11-dihydro-5H-pyrido[2,3-b]carbazole-8-carbonitrile]	56.9 nM
CC1(C)c2cc(N3CCN(C4CC4)CC3)c(-c3cccs3)cc2C(=O)c2c1[nH]c1cc(C#N)ccc21 [Compound F5-41, 8-(4-Cyclopropyl-piperazin-1-yl)-6,6-dimethyl-11-oxo-9-thiophene-2-yl-6,11-dihydro-5H-benzo[b]carbazole-3-carbonitrile]	149 nM
CCc1cc2c(cc1N1CCC(N3CCOCC3)CC1)C(C)(C)c1[nH]c3cc(C#N)ccc3c1C2=O [Compound F6-20, 9-Ethyl-6,6-dimethyl-8-(4-morpholin-4-yl-piperidin-1-yl)-11-oxo-6,11-dihydro-5H-benzo[b]carbazole-3-carbonitrile]	9.3 nM
CC(C)(C)OC(=O)NCCOc1ccc2c(c1)C(C)(C)c1[nH]c3cc(C#N)ccc3c1C2=O [Compound A7-3, [2-(3-Cyano-6,6-dimethyl-11-oxo-6,11-dihydro-5H-benzo[b]carbazol-8-yloxy)-ethyl]-carbamic acid tert-butyl ester]	114 nM
CC1(C)c2cc(OCCN(CCO)CCO)ccc2C(=O)c2c1[nH]c1cc(C#N)ccc21 [Compound A8-15, 8-{2-[Bis-(2-hydroxy-ethyl)-amino]-ethoxy}-6,6-dimethyl-11-oxo-6,11-dihydro-5H-benzo[b]carbazole-3-carbonitrile]	232 nM
CC1(C)c2cc(OCC(=O)N3CCN(S(C)(=O)=O)CC3)ccc2C(=O)c2c1[nH]c1cc(Br)ccc21 [Compound T13-6, 3-Bromo-8-[2-(4-methanesulfonyl-piperazin-1-yl)-2-oxo-ethoxy]-6,6-dimethyl-5,6-dihydro-benzo[b]carbazol-11-one]	1290 nM
CC1(C)c2cc(OCc3ccncc3)ccc2C(=O)c2c1[nH]c1cc(C#N)ccc21 [Compound A7-7, 6,6-Dimethyl-11-oxo-8-(pyridin-4-ylmethoxy)-6,11-dihydro-5H-benzo[b]carbazole-3-carbonitrile]	329 nM
CC1(C)c2cc(N3CCC(N4CCCC4)CC3)ccc2C(=O)c2c1[nH]c1cc(C#N)ccc21 [Compound B2-4, 6,6-Dimethyl-11-oxo-8-(4-pyrrolidin-1-yl-piperidin-1-yl)-6,11-dihydro-5H-benzo[b]carbazole-3-carbonitrile]	36.5 nM
CC1(C)c2cc(S(=O)(=O)CC(O)CO)ccc2C(=O)c2c1[nH]c1cc(C#N)ccc21 (stereo not shown) [Compound B3-12, 8-(2,3-Dihydroxy-propane-1-sulfonyl)-6,6-dimethyl-11-oxo-6,11-dihydro-5H-benzo[b]carbazole-3-carbonitrile]	1440 nM
CC1(C)c2cc(OCC3CCNCC3)ccc2C(=O)c2c1[nH]c1cc(Br)ccc21 [Compound T14-2, 3-Bromo-6,6-dimethyl-8-(piperidin-4-ylmethoxy)-5,6-dihydro-benzo[b]carbazol-11-one hydrochloric acid salt]	632 nM
CC(C)(C)N1CCN(c2cc3c(cc2Br)C(=O)c2c([nH]c4cc(C#N)ccc24)C32CCOCC2)CC1 [Compound O8-5, 9-Bromo-8-(4-tert-butylpiperazin-1-yl)-11-oxo-2′,3′,5,5′,6′,11-hexahydrospiro[benzo[b]carbazole-6,4′-pyran]-3-carbonitrile]	30 nM
CC1(C)c2ccc(OCCCCCC(=O)O)cc2C(=O)c2c1[nH]c1cc(C#N)ccc21 [Compound J7-14, 6-(3-Cyano-6,6-dimethyl-11-oxo-6,11-dihydro-5H-benzo[b]carbazol-9-yloxy)-hexanoic acid]	557 nM
CCN(CC)CCOc1ccc2c(c1)C1(CCNCC1)c1[nH]c3ccccc3c1C2=O [Compound X5, 8-(2-Diethylaminoethoxy)-6,6-spiro-4-piperidine-8-hydroxy-5,6-dihydro-benzo[b]carbazol-11-one]	2880 nM
CC1(C)c2cc(OC3CCNCC3)ccc2C(=O)c2c1[nH]c1ccc(N)cc21 [Compound P5, 2-Amino-6,6-dimethyl-8-(piperidin-4-yloxy)-5,6-dihydro-benzo[b]carbazol-11-one]	27800 nM
CSCCOc1ccc2c(c1)C(C)(C)c1c(c3ccc(C#N)cc3n1CCSC)C2=O [Compound A7-5, 6,6-Dimethyl-8-(2-methylsulfanyl-ethoxy)-5-(2-methylsulfanyl-ethyl)-11-oxo-6,11-dihydro-5H-benzo[b]carbazole-3-carbonitrile]	627 nM
CC1(C)c2cc(OC[C@@H](O)[C@H](O)CO)ccc2C(=O)c2c1oc1cc(Oc3ncccn3)ccc21 [GT13-33, 6,6-Dimethyl-3-(pyrimidin-2-yloxy)-8-((2R,3R)-2,3,4-trihydroxy-butoxy)-6H-benzo[b]naphtho[2,3-d]furan-11-one]	10900 nM
C#Cc1cc2c(cc1N1CCC(N3CCCC3)CC1)C(C)(C)c1[nH]c3cc(C#N)ccc3c1C2=O [Compound F5-4, 9-Ethynyl-6,6-dimethyl-11-oxo-8-(4-pyrrolidin-1-yl-piperidin-1-yl)-6,11-dihydro-5H-benzo[b]carbazole-3-carbonitrile]	1.8 nM
